The test has as its target GTPase KRas (Homo sapiens) (UniProt P01116). Put plainly: Covalent labelling of cysteine mutants by fragments, read by mass spectrometry (AID 2202238). Further details: protein at 5 µM with 500 µM competing thiol for 1.5 h. The conditions noted are these: KRAS G12D cysteine mutants, disulfide tethering, MALDI-TOF labeling, stronger effect = higher value, fragment at 500 µM.
[1] abbreviates: measured here: G60C mutant labeling.
[2] abbreviates: measured here: G75C mutant labeling.
[3] abbreviates: measured here: H94C mutant labeling.
The mark [4] stands for this setting: measured here: I36C mutant labeling.
[5] abbreviates: measured here: L120C mutant labeling.
The mark [6] stands for this setting: measured here: M67C mutant labeling.
Setting [7] is: measured here: M72C mutant labeling.
Where [8] appears, read: measured here: N26C mutant labeling.
Setting [9] is: measured here: N86C mutant labeling.
Where [10] appears, read: measured here: P121C mutant labeling.
Where [11] appears, read: measured here: S122C mutant labeling.
Setting [12] is: measured here: S136C mutant labeling.

Some of the results follow. Further columns of the screen follow, without active or inactive calls.

Sequence of UniProt P01116 (P01116 whole entry, looked up, the tested form may be a part): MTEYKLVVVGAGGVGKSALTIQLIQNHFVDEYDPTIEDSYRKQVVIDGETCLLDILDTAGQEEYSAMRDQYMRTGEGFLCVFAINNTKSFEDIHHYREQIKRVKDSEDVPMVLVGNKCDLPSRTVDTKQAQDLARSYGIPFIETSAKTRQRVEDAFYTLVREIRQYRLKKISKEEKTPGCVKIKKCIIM

As for `COc1cc2[nH]c(C(=O)NCCS)cc2c(OC)c1OC`, the percent labeling reads like this: under setting [1], 31%; under setting [2], 20.5%; under setting [3], 20.9%; under setting [4], 20.2%; under setting [5], 22.9%; under setting [6], 17.3%. The percent labeling reads like this: under setting [7], 45.9%; under setting [8], 45.6%; under setting [9], 16.5%; under setting [10], 15.8%; under setting [11], 14%; under setting [12], 26.2%.

As to `Cn1nc(C(F)F)cc1CNC(=O)CCS`, the percent labeling was 11.4% under setting [2]; 25.8% under setting [3]; 36.7% under setting [4]; 28.7% under setting [5]; 28.9% under setting [6]; 17% under setting [7]. In addition, the percent labeling worked out at 31.6% under setting [9], 30.9% under setting [10], 35.1% under setting [11] and 44.7% under setting [12].

As for `O=C(CC1(CC(=O)Nc2nccs2)CCCCC1)NCCS`, the percent labeling reads like this: under setting [1], 34.5%; under setting [2], 16.7%; under setting [3], 21.9%; under setting [4], 12.1%; under setting [5], 18.6%; under setting [6], 14.8%. Further, the percent labeling was found to be 19.4% under setting [7]; 22.1% under setting [8]; 11.6% under setting [9]; 12.5% under setting [10]; 9.5% under setting [11]; 31.9% under setting [12].

As to `Cc1cc(=O)oc2cc(NC(=O)CCS)ccc12`, the percent labeling was found to be 7.7% under setting [2]; 13.4% under setting [3]; 32.7% under setting [4]; 14.2% under setting [5]; 17.2% under setting [6]; 37.1% under setting [7]. Further, the percent labeling reads like this: under setting [9], 10.8%; under setting [10], 13.4%; under setting [11], 9.9%; under setting [12], 28.8%.

Consider `O=C(NCCS)C1CCN(c2cnccn2)CC1`, for which the percent labeling stood at 37.2% under setting [1]; 12.9% under setting [2]; 33.5% under setting [3]; 24.8% under setting [4]; 40.5% under setting [5]; 29.9% under setting [6]. The percent labeling runs as follows: under setting [7], 19%; under setting [8], 40.1%; under setting [9], 30.4%; under setting [10], 31.6%; under setting [11], 31.3%; under setting [12], 46.8%.

As for `O=C(CCn1nc(-c2cccs2)oc1=O)NCCS`, the percent labeling is 44% under setting [1]; 17% under setting [2]; 33.2% under setting [3]; 31.6% under setting [4]; 44.6% under setting [5]; 48.5% under setting [6]. Further, the percent labeling is, setting by setting: under setting [7], 28.2%; under setting [8], 39.6%; under setting [9], 24.4%; under setting [10], 37.7%; under setting [11], 33.2%; under setting [12], 46.2%.

Regarding `Cn1cc(C2=CCCN(C(=O)CCS)C2)cn1`, the percent labeling runs as follows: under setting [2], 11.2%; under setting [3], 12.5%; under setting [4], 26.4%; under setting [5], 10.6%; under setting [6], 14.4%; under setting [7], 9.3%. For the same compound, the percent labeling is, setting by setting: under setting [9], 6.7%; under setting [10], 14.7%; under setting [11], 17.6%; under setting [12], 24.2%.

For `O=C(CCS)Nc1nc(C2CC2)c(Cc2ccc(F)cc2)s1`, the percent labeling runs as follows: under setting [2], 11.2%; under setting [3], 13.9%; under setting [4], 9.1%; under setting [5], 9.7%; under setting [6], 13.4%; under setting [7], 15%. The same compound displayed a percent labeling under setting [9] of 7.3%, a percent labeling under setting [10] of 7.8%, a percent labeling under setting [11] of 3.3% and a percent labeling under setting [12] of 14.2%.

Turning to `Cc1nc2ccccc2c(=O)n1-c1ccc(C(=O)NCCS)cc1`, the percent labeling runs as follows: under setting [1], 29%; under setting [2], 7.2%; under setting [3], 13.4%; under setting [4], 11.3%; under setting [5], 16.5%; under setting [6], 23.1%. Further, the percent labeling runs as follows: under setting [7], 23%; under setting [8], 28.6%; under setting [9], 8.4%; under setting [10], 21%; under setting [11], 8%; under setting [12], 18.9%.

Regarding `O=C(Cc1cc2ccccc2c(=O)[nH]1)NCCS`, the percent labeling is 30.8% under setting [1]; 12.6% under setting [2]; 18.6% under setting [3]; 19.5% under setting [4]; 32.6% under setting [5]; 22.3% under setting [6]. In addition, the percent labeling under setting [7] was 42.4%; the percent labeling under setting [8] amounted to 36.5%; the percent labeling under setting [9] turned out to be 17.8%; the percent labeling under setting [10] came out at 18.8%; the percent labeling under setting [11] was 10.6%; the percent labeling under setting [12] is 36.6%.

In turn, `CN1CCN(c2cccc(C(=O)NCCS)n2)CC1=O` gave a percent labeling under setting [1] of 18.8%; a percent labeling under setting [2] of 9.6%; a percent labeling under setting [3] of 29.1%; a percent labeling under setting [4] of 17.1%; a percent labeling under setting [5] of 23.3%; a percent labeling under setting [6] of 21.7%. This compound registered a percent labeling under setting [7] of 28.3%; a percent labeling under setting [8] of 23.7%; a percent labeling under setting [9] of 11.3%; a percent labeling under setting [10] of 18.2%; a percent labeling under setting [11] of 15.8%; a percent labeling under setting [12] of 31.7%.

In the case of `Cn1nc(C(F)(F)F)c2cc(C(=O)NCCS)cnc21`, the percent labeling runs as follows: under setting [1], 31.1%; under setting [2], 13.7%; under setting [3], 19.6%; under setting [4], 18.3%; under setting [5], 19.3%; under setting [6], 22.3%. Moreover, the percent labeling is, setting by setting: under setting [7], 36.1%; under setting [8], 37.4%; under setting [9], 16.5%; under setting [10], 15.7%; under setting [11], 13.1%; under setting [12], 35.5%.

For `O=C(NCCS)C1COCCN1CC1CCC1` (configuration not stated), the percent labeling under setting [1] is 36.7%; the percent labeling under setting [2] amounted to 17.2%; the percent labeling under setting [3] came to 37.4%; the percent labeling under setting [4] was found to be 23.2%; the percent labeling under setting [5] was found to be 48.8%; the percent labeling under setting [6] was found to be 35.6%. For the same compound, the percent labeling under setting [7] amounted to 23.8%; the percent labeling under setting [8] is 37.1%; the percent labeling under setting [9] stood at 26.7%; the percent labeling under setting [10] was 32.8%; the percent labeling under setting [11] is 28.1%; the percent labeling under setting [12] stood at 48.8%.

For `O=C(NCCS)c1cc(-c2ccc3ccccc3c2)n[nH]1`, the percent labeling was determined as 10.7% under setting [1]; 6.3% under setting [2]; 10.2% under setting [3]; 11.6% under setting [4]; 15.3% under setting [5]; 8.5% under setting [6]. The percent labeling is, setting by setting: under setting [7], 52.9%; under setting [8], 23.7%; under setting [9], 10.6%; under setting [10], 11%; under setting [11], 6.7%; under setting [12], 12.7%.

Consider `Cc1ccc(C)c(CN(C(=O)CCS)c2ccc3c(c2)CCC(=O)N3)c1`, for which the percent labeling worked out at 23.1% under setting [2]; 30.9% under setting [3]; 16.2% under setting [4]; 13.3% under setting [5]; 25% under setting [6]; 36% under setting [7]. In addition, the percent labeling reads like this: under setting [9], 22%; under setting [10], 11.2%; under setting [11], 14.7%; under setting [12], 37%.

Consider `O=C(NCCS)c1cnn(-c2cccc(Cl)c2)n1`, for which the percent labeling is 20.4% under setting [1]; 12.6% under setting [2]; 13.9% under setting [3]; 9.3% under setting [4]; 19.9% under setting [5]; 10.4% under setting [6]. Also, the percent labeling reads like this: under setting [7], 28.4%; under setting [8], 25%; under setting [9], 12.9%; under setting [10], 16.3%; under setting [11], 6.4%; under setting [12], 14.8%.

In the case of `CCCc1nc2ccccc2n1CCC(=O)NCCS`, the percent labeling was found to be 38.1% under setting [1]; 14.2% under setting [2]; 30.9% under setting [3]; 24.2% under setting [4]; 27.9% under setting [5]; 37.1% under setting [6]. For the same compound, the percent labeling amounted to 16.2% under setting [7]; 36.5% under setting [8]; 27.2% under setting [9]; 28.8% under setting [10]; 24.8% under setting [11]; 43.9% under setting [12].

On to `CC(C)c1cc(C(=O)NCCS)nn1-c1ccccc1`, for which the percent labeling by setting is: under setting [1], 22.4%; under setting [2], 9.1%; under setting [3], 16%; under setting [4], 10.8%; under setting [5], 21.5%; under setting [6], 14.8%. Further, the percent labeling reads like this: under setting [7], 22.8%; under setting [8], 24.5%; under setting [9], 9%; under setting [10], 14.8%; under setting [11], 12.2%; under setting [12], 30.7%.

`O=C(NCCS)c1cccc(C(F)(F)F)c1`: the percent labeling was found to be 54.1% under setting [1]; 21.3% under setting [2]; 39.8% under setting [3]; 19.1% under setting [4]; 21% under setting [5]; 17.6% under setting [6]. Further, the percent labeling was determined as 54.2% under setting [7]; 28.5% under setting [8]; 15.1% under setting [9]; 22.9% under setting [10]; 15.6% under setting [11]; 35.4% under setting [12].

On to `O=C(CCS)N1CCC(Sc2cccc(Cl)c2)C1` (configuration not stated), for which the percent labeling came to 17.1% under setting [2]; 30.3% under setting [3]; 24.1% under setting [4]; 24.3% under setting [5]; 30.8% under setting [6]; 35% under setting [7]. The compound further showed a percent labeling under setting [9] of 18.4%, a percent labeling under setting [10] of 24.1%, a percent labeling under setting [11] of 14% and a percent labeling under setting [12] of 38.5%.

`O=C(NCCS)c1ccccc1-n1cc(Br)cn1`: the percent labeling runs as follows: under setting [1], 49.2%; under setting [2], 19.8%; under setting [3], 35%; under setting [4], 24%; under setting [5], 30.4%; under setting [6], 32.7%. Also, the percent labeling turned out to be 35.9% under setting [7]; 39.2% under setting [8]; 23.3% under setting [9]; 24.5% under setting [10]; 21.1% under setting [11]; 33.7% under setting [12].

As to `COc1cccc(CCN(CC(F)F)C(=O)CCS)c1`, the percent labeling was determined as 11% under setting [2]; 35.4% under setting [3]; 29.9% under setting [4]; 20.7% under setting [5]; 33.5% under setting [6]; 39.4% under setting [7]. Also, the percent labeling reads like this: under setting [9], 24.4%; under setting [10], 25%; under setting [11], 26%; under setting [12], 51.1%.

With `CCn1cc(-c2[nH]ncc2C(=O)NCCS)cn1`, the percent labeling reads like this: under setting [1], 24.7%; under setting [2], 18.6%; under setting [3], 34.4%; under setting [4], 29.8%; under setting [5], 35.5%; under setting [6], 38%. In addition, the percent labeling is 34% under setting [7]; 48.1% under setting [8]; 28.1% under setting [9]; 35.1% under setting [10]; 35.3% under setting [11]; 49.7% under setting [12].

The values above are taken from PubChem BioAssay AID2202238 (Ras Initiative Chemistry Research Team, Frederick National …, 2025).
